Reference: the supplement of paper PMC4967469
By IC50 is meant the dose at which the fit gives 50% viability; a limit (>, <) means that the fit lies beyond the doses tested. AUC sums up the same curve from the lowest dose to the 256-fold higher top dose; the more sensitive the line, the further below 1. Any top dose called inferred comes from the curve model; the source does not state it.

Experiments:
Assay in all cases: Viability of human cancer cell lines after 72 h of drug (GDSC screen)
BAY 61-3606 = compound: COc1ccc(-c2cc3nccn3c(Nc3ncccc3C(N)=O)n2)cc1OC [BAY 61-3606]; conditions: top dose 8 µM; top dose inferred
Description: (§1)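 Human cancer cell lines in 384-well plates, medium with 10% serum, drug for 72 h over a 256-fold dose range (nine 2-fold or five 4-fold steps up to the top dose). Adherent lines were fixed and stained with the nucleic acid dye Syto60, suspension lines read with resazurin; signal relative to control wells, capped at 0 and 100%. One two-parameter sigmoid per drug and line, fitted in a mixed model over all curves with the slope shared within a line.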

QL-XII-47 = compound: C=CC(=O)N1CCc2ccc(-n3c(=O)ccc4cnc5ccc(-c6cnn(C)c6)cc5c43)cc21 [QL-XII-47]; conditions: top dose 10.24 µM; top dose inferred
Description: as §1

KIN001-266 = compound: CCN1CCC(n2cc(CNc3cc(Cl)c4ncc(C#N)c(Nc5ccc(F)c(Cl)c5)c4c3)nn2)CC1 [KIN001-266]; conditions: top dose 20 µM; top dose inferred
Description: as §1

CCT007093 = compound: O=C1/C(=C/c2cccs2)CC/C1=C\c1cccs1 [CCT007093]; conditions: top dose 6.6 µM; top dose inferred
Description: as §1

Cell Line	AUC (BAY 61-3606)	IC50 (BAY 61-3606)	AUC (QL-XII-47)	IC50 (QL-XII-47)	AUC (KIN001-266)	IC50 (KIN001-266)	AUC (CCT007093)	IC50 (CCT007093)
NCI-H2342 (lung adenocarcinoma, adherent)	0.691	1.83 µM	0.872	> 10.2 µM	0.905	> 20 µM		
GAK (melanoma, adherent)	0.967	> 8 µM	0.976	> 10.2 µM	0.865	16.3 µM		
NCI-H748 (small cell lung carcinoma, suspension)	0.959	> 8 µM	0.484	0.571 µM	0.838	19.3 µM		
RMG-I (ovary, adherent)	0.917	> 8 µM	0.583	1.12 µM	0.772	9.06 µM		
MC-IXC (neuroblastoma, adherent)	0.973	> 8 µM	0.66	1.57 µM	0.877	11.3 µM		
Calu-6 (lung adenocarcinoma, adherent)	0.85	7.53 µM	0.871	> 10.2 µM	0.895	> 20 µM		
TE-441-T (rhabdomyosarcoma, adherent)	0.818	4.3 µM	0.701	2.3 µM	0.876	18.5 µM		
BC-3 (B-cell lymphoma, suspension)	0.772	2.78 µM	0.879	8.59 µM	0.875	16 µM		
BB49-HNC (head and neck, adherent)	0.75	3.61 µM	0.978	> 10.2 µM	0.969	> 20 µM		
VMRC-RCW (kidney, adherent)	0.932	> 8 µM	0.476	0.554 µM	0.864	15.4 µM		
MMAC-SF (melanoma, adherent)	0.935	> 8 µM	0.677	2.05 µM	0.867	19.5 µM		
PL-21 (acute myeloid leukaemia, suspension)	0.612	1.07 µM	0.616	1.41 µM	0.832	15.8 µM		
TALL-1 (T-cell lymphoblastic leukaemia, suspension)	0.975	> 8 µM	0.838	6.45 µM	0.877	18.4 µM		
CAS-1 (glioma, adherent)	0.762	3.89 µM	0.785	6.19 µM	0.863	> 20 µM		
MHH-NB-11 (neuroblastoma, adherent)	0.946	> 8 µM	0.628	1.5 µM	0.871	> 20 µM		
LoVo (large intestine, adherent)	0.746	2.57 µM	0.968	> 10.2 µM	0.939	> 20 µM		
SIG-M5 (acute myeloid leukaemia, suspension)	0.614	0.947 µM	0.294	0.2 µM	0.714	4.18 µM		
COLO-792 (melanoma, adherent)	0.988	> 8 µM	0.653	1.68 µM	0.984	> 20 µM		

Cell Line	AUC (BAY 61-3606)	IC50 (BAY 61-3606)	AUC (QL-XII-47)	IC50 (QL-XII-47)	AUC (KIN001-266)	IC50 (KIN001-266)	AUC (CCT007093)	IC50 (CCT007093)
NCI-H2196 (small cell lung carcinoma, adherent)	0.865	7.72 µM	0.727	2.93 µM	0.813	11.5 µM		
NU-DUL-1 (B-cell lymphoma, suspension)	0.721	1.82 µM	0.568	0.942 µM	0.706	4.14 µM		
NCI-H2228 (lung adenocarcinoma, adherent)	0.808	7.05 µM	0.791	7.5 µM	0.875	> 20 µM		
NCI-H1838 (lung adenocarcinoma, adherent)	0.951	> 8 µM	0.927	> 10.2 µM	0.937	> 20 µM		
SCC-3 (B-cell lymphoma, suspension)	0.931	6.66 µM	0.489	0.602 µM	0.905	13.5 µM		
SU-DHL-1 (anaplastic large cell lymphoma, suspension)	0.997	> 8 µM	0.558	0.886 µM	0.915	14.3 µM		
HCC-33 (small cell lung carcinoma, adherent)	0.922	> 8 µM	0.533	0.786 µM	0.876	> 20 µM		
GR-ST (lymphoblastic leukaemia, suspension)	0.78	4.02 µM	0.581	1.12 µM	0.828	16 µM		
KP-N-YN (neuroblastoma, adherent)	0.904	> 8 µM	0.968	> 10.2 µM	0.981	> 20 µM		
YH-13 (glioma, adherent)			0.734	3.11 µM	0.872	> 20 µM	0.985	> 6.6 µM
BICR31 (head and neck, adherent)	0.929	> 8 µM	0.802	5.12 µM	0.949	> 20 µM		
HCC1599 (breast, suspension)	0.758	3.15 µM	0.639	1.64 µM	0.859	> 20 µM		
OV-56 (ovary, adherent)			0.615	1.31 µM	0.887	> 20 µM	0.988	> 6.6 µM
RCC-FG2 (kidney, adherent)			0.807	7.05 µM	0.862	> 20 µM	0.921	> 6.6 µM
NCI-H716 (large intestine, suspension)	0.932	> 8 µM	0.728	3.42 µM	0.86	> 20 µM		
OV-7 (ovary, adherent)			0.57	1.09 µM	0.801	16.4 µM	0.96	> 6.6 µM
OC-314 (ovary, adherent)			0.758	3.09 µM	0.555	1.73 µM	0.976	> 6.6 µM
PEO1 (ovary, adherent)			0.841	7.56 µM	0.836	14 µM	0.987	> 6.6 µM
